# Tested on: Sprague-Dawley rats
# Test: Collateral diameters in the ROI, coronary microvascular imaging with micro-CT
# Conditions: n=3
# Procedure: In addition Micro-CT is used as a further endpoint to image collaterals. […] Collateral arterial network morphology is analyzed with Amira 5.2.2 software (Visage Imaging, Berlin, Germany).
structure (smiles),measurement,value
CC(=O)Oc1ccccc1C(=O)O [ASA+NTG-PLACEBO],Collateral diameters of ROI,97.1±8.6 μm

# — patent publication US11166931B2, “Induction of arteriogenesis with an NO (nitric oxide) donor” (G. Pohl-Boskamp GmbH & Co. KG, priority 2012, dated 2021)
